Test results: the FLAb antibody collection

Assay: patients with anti-drug antibodies; higher = more immunogenic

B1: unnamed (protein)
chain 1: EVQLVESGGGLVQPGGSLRLSCAASGFTFSNYWMNWVRQAPGKGLEWVAAINQDGSEKYYVGSVKGRFTISRDNAKNSLYLQMNSLRVEDTAVYYCVRDYYDILTDYYIHYWYFDLWGRGTLVTVSS
chain 2: [about 100 residues not shown]
**Q.** Which “patients with anti-drug antibodies” value does the source give for B1 here?
**A.** Its value is 1%.

B2: unnamed (protein)
chain 1: QMQLVESGGGVVQPGRSLRLSCTASGFTFSNNGMHWVRQAPGKGLEWVAVIWFDGMNKFYVDSVKGRFTISRDNSKNTLYLEMNSLRAEDTAIYYCAREGDGSGIYYYYGMDVWGQGTTVTVSS
chain 2: [about 100 residues not shown]TFGPGTKVDIK
**Q.** With B2 as the protein, how does the “patients with anti-drug antibodies” value read?
**A.** Its value is 0%.

B3: unnamed (protein)
chain 1: QVQLQESGPGLVKPSGTLSLTCAVSGGSISSSNWWSWVRQPPGKGLEWIGEIYHSGSTNYNPSLKSRVTISVDKSKNQFSLKLSSVTAADTAVYYCARWTGRTDAFDIWGQGTMVTVSS
chain 2: [about 100 residues not shown]THWPLTFGQGTKVEIK
**Q.** Which “patients with anti-drug antibodies” value does the source give for B3 here?
**A.** Its value is 5.2%.

B4: unnamed (protein)
chain 1: EVQLVQSGAEVKKSGESLKISCKGSGYSFTSYWIGWVRQMPGKGLEWMGIFYPGDSSTRYSPSFQGQVTISADKSVNTAYLQWSSLKASDTAMYYCARRRNWGNAFDIWGQGTMVTVSS
chain 2: [about 100 residues not shown]
**Q.** Which “patients with anti-drug antibodies” value does the source give for B4 here?
**A.** The value was 0%.

B5: unnamed (protein)
chain 1: [about 100 residues not shown]DGSSGWYVPHWFDPWGQGTLVTVSS
chain 2: NFMLTQPHSVSESPGKTVTISCTRSSGSIASNYVQWYQQRPGSSPTTVIYEDNQRPSGVPDRFSGSIDSSSNSASLTISGLKTEDEADYYCQSYDGSNRWMFGGGTKLTVL
**Q.** For B5, which “patients with anti-drug antibodies” value is on record?
**A.** Its value is 3.5%.

B6: unnamed (protein)
chain 1: QVQLVQSGAEVKKPGASVKVSCKASGYTFTSYSISWVRQAPGQGLEWMGWISVYNGNTNYAQKFQGRVTMTTDTSTSTAYLELRSLRSDDTAVYYCARDPIAAGYWGQGTLVTVSS
chain 2: [about 100 residues not shown]
**Q.** For B6, which “patients with anti-drug antibodies” value is on record?
**A.** The value was 0%.
